Not every detail of the peptide structures is certain; ends, links or a residue may be inferred. Square brackets hold non-standard residues; d marks the D form. Peptide text beside a SMILES is read from it. * marks the point of attachment. Propanoyl(3-(4-F-phenyl)) = O=C(CCc1ccc(F)cc1)*; Trp(5-F) = N[C@@H](Cc1c[nH]c2ccc(F)cc12)C(=O)O; Hydrocinnamoyl(2,4-F2) = O=C(CCc1ccc(F)cc1F)*; Propanoyl(3-(4-Cl-Ph)) = O=C(CCc1ccc(Cl)cc1)*; dPhe(4-Cl) = N[C@H](Cc1ccc(Cl)cc1)C(=O)O; d1Nal = N[C@H](Cc1cccc2ccccc12)C(=O)O; d(hCit) = NC(=O)NCCCC[C@@H](N)C(=O)O; NMeY = CN[C@@H](Cc1ccc(O)cc1)C(=O)O; d2Thi = N[C@H](Cc1cccs1)C(=O)O; Nicotinoyl = O=C(c1cccnc1)*; X4 = O=C(CCc1cccc(F)c1)*
The compounds below were run on male castrate rats (assay: In vivo LH Inhibiton). Settings: table 4, 30 ug/kg subcutaneously by bolus injection, AUC of log (LHt /LHi).
Design: species or system rat
Method: (c) In vivo LH Inhibiton. The compound to be tested is administered at 30 ug/kg subcutaneously by bolus injection to male castrate rats and blood samples are collected periodically over 24 hours. The AUC (area under the curve) of the LH suppression data as a function of time is calculated using the formula log (LHt /LHi) wherein LHt is the LH concentration in the blood at time t and LHi is the initial baseline LH concentration in the blood. The AUC values are negative numbers.

In order of rising “AUC (24 hr. after 30 ug/kg)” value:
1. CC(C)C[C@H](NC(=O)[C@@H](CCCCN)NC(=O)[C@H](Cc1ccc(O)cc1)N(C)C(=O)[C@H](CO)NC(=O)[C@@H](Cc1cccc2ccccc12)NC(=O)CCc1ccc(F)cc1)C(=O)N[C@@H](CCCNC(=N)N)C(=O)N1CCC[C@H]1C(=O)N[C@H](C)C(N)=O [Compound 169, (3-10)[N-(3-(4-Fluorophenyl)propionyl)-D-1-Nal^3 -NMeTyr^5 -D-Lys^6 -D-Ala^10]LHRH] ({Propanoyl(3-(4-F-phenyl))}-[d1Nal]S[NMeY][dK]LRP[dA]-NH2)  -1142
2. CC(C)C[C@H](NC(=O)[C@@H](CCCCNC(=O)c1cccnc1)NC(=O)[C@H](Cc1ccc(O)cc1)N(C)C(=O)[C@H](CO)NC(=O)[C@@H](Cc1cccc2ccccc12)NC(=O)CCc1ccc(F)cc1)C(=O)N[C@@H](CCCNC(=N)N)C(=O)N1CCC[C@H]1C(=O)N[C@H](C)C(N)=O [Compound 174, (3-10)[N-(3-(4-Fluorophenyl)propionyl)-D-1-Nal^3 -NMeTyr^5 -D-Lys^6 (N-epsilon-nicotinyl)-D-Ala^10]LHRH] ({Propanoyl(3-(4-F-phenyl))}-[d1Nal]S[NMeY][dK](Nicotinoyl)LRP[dA]-NH2)  -938
3. CC(C)C[C@H](NC(=O)[C@@H](CCCCN)NC(=O)[C@H](Cc1ccc(O)cc1)N(C)C(=O)[C@H](CO)NC(=O)[C@@H](Cc1cccc2ccccc12)NC(=O)CCc1ccc(F)cc1)C(=O)N[C@@H](CCCNC(=N)N)C(=O)N1CCC[C@H]1C(=O)N[C@H](C)C(N)=O [Compound 179, (3-10)[N-(3-(4-Fluorophenyl)propionyl)-D-1-Nal^3 -NMeTyr^5 -D-Lys^6 -D-Ala^10]LHRH] ({Propanoyl(3-(4-F-phenyl))}-[d1Nal]S[NMeY][dK]LRP[dA]-NH2)  -781
4. CC(C)C[C@H](NC(=O)[C@@H](CCCCN)NC(=O)[C@H](Cc1ccc(O)cc1)N(C)C(=O)[C@H](CO)NC(=O)[C@@H](Cc1ccc(Cl)cc1)NC(=O)CCc1ccc(F)cc1)C(=O)N[C@@H](CCCNC(=N)N)C(=O)N1CCC[C@H]1C(=O)N[C@H](C)C(N)=O [Compound 175, (3-10)[N-(3-(4-Fluorophenyl)propionyl)-D-4-Cl-Phe^3 -NMeTyr^5 -D-Lys^6 -D-Ala^10]LHRH] ({Propanoyl(3-(4-F-phenyl))}-[dPhe(4-Cl)]S[NMeY][dK]LRP[dA]-NH2)  -394
5. CC(C)C[C@H](NC(=O)[C@@H](CCCCNC(N)=O)NC(=O)[C@H](Cc1ccc(O)cc1)N(C)C(=O)[C@H](CO)NC(=O)[C@@H](Cc1cccc2ccccc12)NC(=O)CCc1ccc(F)cc1)C(=O)N[C@@H](CCCNC(=N)N)C(=O)N1CCC[C@H]1C(=O)N[C@H](C)C(N)=O [Compound 178, (3-10)[N-(3-(4-Fluorophenyl)propionyl)-D-1-Nal^3 -NMeTyr^5 -D-Hcit^6 -D-Ala^10]LHRH] ({Propanoyl(3-(4-F-phenyl))}-[d1Nal]S[NMeY][d(hCit)]LRP[dA]-NH2)  -371
6. CC(C)C[C@H](NC(=O)[C@@H](Cc1c[nH]c2ccccc12)NC(=O)[C@H](Cc1ccc(O)cc1)N(C)C(=O)[C@H](CO)NC(=O)[C@@H](Cc1c[nH]c2ccccc12)NC(=O)CCc1ccc(F)cc1)C(=O)N[C@@H](CCCNC(=N)N)C(=O)N1CCC[C@H]1C(=O)N[C@H](C)C(N)=O [Compound 164, (3-10)[N-(3-(4-Fluorophenyl)propionyl)-D-Trp^3,6 -NMeTyr^5 -D-Ala^10]LHRH] ({Propanoyl(3-(4-F-phenyl))}-[dW]S[NMeY][dW]LRP[dA]-NH2)  -364
7. CCNC(=O)[C@@H]1CCCN1C(=O)[C@H](CCCNC(=N)N)NC(=O)[C@H](CC(C)C)NC(=O)[C@@H](CCCCNC(=O)c1cccnc1)NC(=O)[C@H](Cc1ccc(O)cc1)N(C)C(=O)[C@H](CO)NC(=O)[C@@H](Cc1c[nH]c2ccccc12)NC(=O)CCc1ccc(Cl)cc1 [Compound 154, (3-9)[N-(3-(4-Chlorophenyl)propionyl) -D-Trp^3 -NMeTyr^5 -DLys^6 (N-epsilon-nicotinyl)-Pro ^9 NHEt]LHRH] ({Propanoyl(3-(4-Cl-Ph))}-[dW]S[NMeY][dK](Nicotinoyl)LRP-NHEt)  -328
8. CCNC(=O)[C@@H]1CCCN1C(=O)[C@H](CCCNC(=N)N)NC(=O)[C@H](CC(C)C)NC(=O)[C@@H](Cc1c[nH]c2ccccc12)NC(=O)[C@H](Cc1ccc(O)cc1)NC(=O)[C@H](CO)NC(=O)[C@@H](Cc1cccc2ccccc12)NC(=O)CCc1ccc(F)cc1 [Compound 145, (3-9)[N-(3-(4-Fluorophenyl)propionyl) -D-1-Nal^3 -D-Trp^6 -Pro^9 NHEt]LHRH] ({Propanoyl(3-(4-F-phenyl))}-[d1Nal]SY[dW]LRP-NHEt)  -247
9. CC(C)C[C@H](NC(=O)[C@@H](CCCCN)NC(=O)[C@H](Cc1ccc(O)cc1)N(C)C(=O)[C@H](CO)NC(=O)[C@@H](Cc1c[nH]c2ccccc12)NC(=O)CCc1ccc(F)cc1)C(=O)N[C@@H](CCCNC(=N)N)C(=O)N1CCC[C@H]1C(=O)N[C@H](C)C(N)=O [Compound 173, (3-10)[N-(3-(4-Fluorophenyl)propionyl)-D-Trp^3 -NMeTyr^5 -D-Lys^6 -D-Ala^10]LHRH] ({Propanoyl(3-(4-F-phenyl))}-[dW]S[NMeY][dK]LRP[dA]-NH2)  -241
10. CCNC(=O)[C@@H]1CCCN1C(=O)[C@H](CCCNC(=N)N)NC(=O)[C@H](CC(C)C)NC(=O)[C@@H](Cc1c[nH]c2ccccc12)NC(=O)[C@H](Cc1ccc(O)cc1)NC(=O)[C@H](CO)NC(=O)[C@H](Cc1c[nH]c2ccc(F)cc12)NC(=O)CCc1ccc(F)cc1 [Compound 142, (3-9)[N-(3-(4-Fluorophenyl)propionyl) -5-F-Trp^3 -D-Trp^6 -Pro^9 NHEt]LHRH] ({Propanoyl(3-(4-F-phenyl))}-[Trp(5-F)]SY[dW]LRP-NHEt)  -237
11. CCNC(=O)[C@@H]1CCCN1C(=O)[C@H](CCCNC(=N)N)NC(=O)[C@H](CC(C)C)NC(=O)[C@@H](Cc1c[nH]c2ccccc12)NC(=O)[C@H](Cc1ccc(O)cc1)NC(=O)[C@H](CO)NC(=O)[C@@H](Cc1ccc(Cl)cc1)NC(=O)CCc1ccc(F)cc1 [Compound 140, (3-9) [N-(3-(4-Fluorophenyl)propionyl) -D-4-Cl-Phe^3 -D-Trp^6 -Pro^9 NHEt]LHRH] ({Propanoyl(3-(4-F-phenyl))}-[dPhe(4-Cl)]SY[dW]LRP-NHEt)  -195
12. CCNC(=O)[C@@H]1CCCN1C(=O)[C@H](CCCNC(=N)N)NC(=O)[C@H](CC(C)C)NC(=O)[C@@H](Cc1ccc(Cl)cc1)NC(=O)[C@H](Cc1ccc(O)cc1)NC(=O)[C@H](CO)NC(=O)[C@@H](Cc1c[nH]c2ccccc12)NC(=O)CCc1ccc(F)cc1 [Compound 149, (3-9)[N-(3-(4-Fluorophenyl)propionyl) -D-Trp3-D-4-Cl-Phe^6 -Pro^9 NHEt]LHRH] ({Propanoyl(3-(4-F-phenyl))}-[dW]SY[dPhe(4-Cl)]LRP-NHEt)  -161
13. CCNC(=O)[C@@H]1CCCN1C(=O)[C@H](CCCNC(=N)N)NC(=O)[C@H](CC(C)C)NC(=O)[C@@H](Cc1c[nH]c2ccccc12)NC(=O)[C@H](Cc1ccc(O)cc1)N(C)C(=O)[C@H](CO)NC(=O)[C@@H](Cc1c[nH]c2ccccc12)NC(=O)CCc1ccc(F)cc1F [Compound 155, (3-9)[N-(3-(2,4-diFluorophenyl)propionyl) -D-Trp^3,6 -NMeTyr^5 -Pro^9 NHEt]LHRH] ({Hydrocinnamoyl(2,4-F2)}-[dW]S[NMeY][dW]LRP-NHEt)  -148
14. CCNC(=O)[C@@H]1CCCN1C(=O)[C@H](CCCNC(=N)N)NC(=O)[C@H](CC(C)C)NC(=O)[C@@H](CCCCNC(=O)c1cccnc1)NC(=O)[C@H](Cc1ccc(O)cc1)N(C)C(=O)[C@H](CO)NC(=O)[C@@H](Cc1c[nH]c2ccccc12)NC(=O)CCc1ccc(F)cc1F [Compound 152, (3-9)[N-(3-(2,4-diFluorophenyl)propionyl) -D-Trp^3 -NMeTyr^5 -D-Lys^6 (N-epsilon-nicotinyl)-Pro^9 NHEt]LHRH] ({Hydrocinnamoyl(2,4-F2)}-[dW]S[NMeY][dK](Nicotinoyl)LRP-NHEt)  -144
15. CC(C)C[C@H](NC(=O)[C@@H](Cc1c[nH]c2ccccc12)NC(=O)[C@H](Cc1ccc(O)cc1)NC(=O)[C@H](CO)NC(=O)[C@@H](Cc1c[nH]c2ccccc12)NC(=O)CCc1ccc(F)cc1)C(=O)N[C@@H](CCCNC(=N)N)C(=O)N1CCC[C@H]1C(=O)N[C@H](C)C(N)=O [Compound 162, (3-10)[N-(3-(4-Fluorophenyl)propionyl)-D-Trp^3,6 -D-Ala^10]LHRH] ({Propanoyl(3-(4-F-phenyl))}-[dW]SY[dW]LRP[dA]-NH2)  -119
16. CCNC(=O)[C@@H]1CCCN1C(=O)[C@H](CCCNC(=N)N)NC(=O)[C@H](CC(C)C)NC(=O)[C@@H](CCCCNC(=O)c1cccnc1)NC(=O)[C@H](Cc1ccc(O)cc1)N(C)C(=O)[C@H](CO)NC(=O)[C@@H](Cc1c[nH]c2ccccc12)NC(=O)CCc1cccc(F)c1 [Compound 153, (3-9)[N-(3-(3-Fluorophenyl)propionyl) -D-Trp^3 -NMeTyr^5 -D-Lys^6 (N-epsilon-nicotinyl)-Pro ^9 NHEt]LHRH] (X4-[dW]S[NMeY][dK](Nicotinoyl)LRP-NHEt)  -115
17. CC(C)C[C@H](NC(=O)[C@@H](CCCCNC(=O)c1cccnc1)NC(=O)[C@H](Cc1ccc(O)cc1)N(C)C(=O)[C@H](CO)NC(=O)[C@@H](Cc1cccs1)NC(=O)CCc1ccc(F)cc1)C(=O)N[C@@H](CCCNC(=N)N)C(=O)N1CCC[C@H]1C(=O)N[C@H](C)C(N)=O [Compound 161, N-[3-(4-Fluorophenyl)propionyl]-D-Thia-Ser-NMeTyr-D -Lys(N-epsilon-nicotinyl)-Leu-Arg-Pro-D-AlaNH2] ({Propanoyl(3-(4-F-phenyl))}-[d2Thi]S[NMeY][dK](Nicotinoyl)LRP[dA]-NH2)  -101
